In the supplement of paper PMC12632987:
Whole data set: some 1,800 sequences, median “median log2 fold change of GCK-ALFA target abundance (FLAG IP / Myc IP barcode read proportion)” near 0.14, cut for the lowest 2% near -0.84. This is one part of the list.

B1: traf2_out_15_48_1352 (protein)
chain: STEKLRKTAREINDKIDETLDAVAERLRALLPELAPELQPLAEAAIETATRRTSINETIALLAEAAAKADPETQAKLTALRDELEATKKEASKLMNETLK
B2: traf2_out_14_149_1235 (protein)
chain: SHMAELFKAAAEMNRIAAEALEKALELLDKGEVEAAKKLLEETIKKLEEYGKEHGITTSIVFELEHILKLLDTDVEAAKEAAKRALERARSAAEAAESLA
B3: traf2_out_14_149_1237 (protein)
chain: SPEAKLFAAAAELNEKAAKALKEALKLIDEGKVEEAKKLLEKTIKELEEYGKKHGVTVSSVFELEHILKLLDEDVEAAKAAAEEAAKRAEDAADAARSLA
B4: traf2_out_11_155_732 (protein)
chain: EALRQAQREINDFALELGDELVEYVRELIERVEEEDPEAAEKLREVFEKHLKFSARSAARAVADLLRELGYEEEAEELEKRIEEANKKASEHVNEVEAKL
B5: traf2_out_9_108_2599 (protein)
chain: MTPLELADAAVDRVIGTVEEKVPEVKFSEETKANIRRTLHRVVELSEITNETTITSYVAAEVLLAARDLPKETLEKIAEVLIELDPSVKSTVERTLSLLK
B6: traf2_out_13_95_1101 (protein)
chain: SLELAKKIMEIADKMLEEAEKILEELLKKAKKAGVAEEEIQEALHLARTHSIREAIHKLKELAKEYPELKEELEEAIKKLEELIREAGKKVAELIKKEEE
B7: traf2_out_11_169_892 (protein)
chain: AEAEKNRKIIDKALELNDKAVEKLKEFALKLAKEAGLDVEEVKAIFEENKGKSLSAVAAALIEYFKSKGKEEEAEAVLKKHEELKEEINKEMTAFIKSLE
B8: traf2_out_11_155_691 (protein)
chain: SHDQELNNELVDKTTAIADKAKAEADKIAAAAAAAHPEHAERIAAAAAEAKKFSHRTYLGLMAALFRELGLEEEAARVEELLAKAQKEMNAVVKEIEAKK
B9: traf2_out_8_15_2553 (protein)
chain: SIEEAAQKDIERLRALSDGDEESLINTLMGTAKAELRLAKIYMEEGKKEEALNTLQAAEIYANAALELAKKINSPDLEKITKEVEKINKEIEELKKKIEA
B10: traf2_out_9_108_2593 (protein)
chain: MTKEEILEEKFKKVEELVKEFIEEVDLTEEQKEELEEAIKNAKELYEKGLKETAIILLAIDLARVASKVGEEAVKELLEKLKKIDERAYSAAERMVKLLK
B11: traf2_out_13_95_1041 (protein)
chain: SAELAEKIMAIADDMLDRALALLDAAAAEAADDPEARAVLEEARRLAETRGISEAIHLLREAAAAHPEHRELFERTIAELEAIRREAGREVAKLIKEEKE
B12: traf2_out_1_27_1022 (protein)
chain: SDEEFTRLIRETDRKIAEVDLEEQKKVVKEALKEAAKWGLGDARMLARTLVASQNDEERQEAIKEASLEAFKELGAPEEVIEELERVFNSIIERKKKVLA
B13: traf2_out_18_64_1956 (protein)
chain: SPVREEVDRLVDEMDARRRARLRLAERLTAKAAADPAYQPLLDLFHANVNSIGLAGAREMLALLDAGAPVEELEAVLRRHLGEGDELQRRLAEALEKLEA
B14: traf2_out_11_155_762 (protein)
chain: EEKLKIYREFNDKAMEIADELEKKIEETIKKLEEEDPAVAAEVRALLEKHRDASARSKALLAARKLKEAGYEELAKELLEKVKEAQEKMNKIANEANKKI
B15: traf2_out_18_117_1785 (protein)
chain: MKREEVIKRLEEIAEKVGRKASELGKLMLEKWEELSPEEKSEIMDILADLTEVRREALELIEKIKAGEIPLEEAEKRAREIEKRAEEALKKAEEKIKEIE
B16: traf2_out_20_3_2117 (protein)
chain: KELEEELERELERALRLLEEAAKLANPEDAKVLRELAKRLEASRELSPVDRLVVVSEIRREVRALRQRALAAGDEELAEVLERAAEALNRAANLLMKIIE
B17: traf2_out_13_95_1087 (protein)
chain: SAETNAKINEIADKMMEKIEAILDKLSEEVADDPELKAEVEAAKELAITRGVNEAIHKLRELSKAHPEYKEKLDKAIDEIEKVKREASKEISKLLKEEKE
B18: traf2_out_11_169_799 (protein)
chain: KEAEKNRKINDKALELNDKAKEELLKHALELAKKEGLDTEEVKAIYEKNKNRSLSAVASALIDYFKSQGKEEAAEAVLKKYEELKEKINKEMTAFIKELE
B19: traf2_out_20_38_2036 (protein)
chain: SMEEEEEEKLEEIIRVANEAYDAYEAEIAALKAAGKTVEEIAAIAKERVRELLSKVGLEEEAEILVEDIDLALSSPEAERLIARILARAEAKVKQKELNE

Biological target: T1, TRAF2, Q12933
T1 chain: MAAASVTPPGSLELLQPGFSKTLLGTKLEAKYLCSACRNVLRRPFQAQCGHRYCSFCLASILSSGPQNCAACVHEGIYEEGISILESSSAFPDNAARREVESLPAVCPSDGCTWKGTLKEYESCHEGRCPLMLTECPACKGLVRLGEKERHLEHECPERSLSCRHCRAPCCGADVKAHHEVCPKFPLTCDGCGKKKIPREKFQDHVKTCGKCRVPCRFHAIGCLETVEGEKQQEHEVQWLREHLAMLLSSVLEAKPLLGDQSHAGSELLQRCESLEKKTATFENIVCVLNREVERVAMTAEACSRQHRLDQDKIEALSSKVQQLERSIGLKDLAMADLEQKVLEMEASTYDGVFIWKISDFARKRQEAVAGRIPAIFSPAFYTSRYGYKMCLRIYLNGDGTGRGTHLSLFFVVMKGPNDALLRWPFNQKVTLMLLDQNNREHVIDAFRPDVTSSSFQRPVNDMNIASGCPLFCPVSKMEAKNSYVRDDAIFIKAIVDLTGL
Assay: median log2 fold change of GCK-ALFA target abundance (FLAG IP / Myc IP barcode read proportion) (log2 ratio); each designed protein is fused to an ALFA-tag nanobody in HEK293 cells to bring the named protein to FLAG-tagged glucokinase (GCK); Myc marks an untargeted standard; higher = target protein stabilised (more abundant)
Conditions: target protein: 3xFLAG-MCP-GCK-ALFA reporter; HEK293 landing pad (RPLP)
Procedure, shortened: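 Binders fused to an ALFA nanobody were recombined as a library into HEK293 landing-pad cells, which were induced with 2 μg mL^−1 doxycycline and then transfected to express a FLAG-tagged target and a Myc-tagged standard. After 48 h, circular RNA barcodes recovered by anti-FLAG and anti-Myc immunoprecipitation of lysates were reverse transcribed, amplified and sequenced. Each binder's target abundance is the median log2 ratio of FLAG to Myc barcode read proportions, from barcodes present at ≥10^−7 in both replicates, binders carrying ≥3 barcodes per replicate, a 10^−6 pseudocount and pooled replicates.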

B1 and B2 are within 0.2 log units of each other in “median log2 fold change” value: 0.361 for the first, 0.283 for the second.

B3 and B4 are within 0.2 log units of each other in “median log2 fold change” value: 0.226 for the first, 0.328 for the second.

Going from B5 to B6, the “median log2 fold change” value falls from 0.237 to -0.304.

B7 and B8 are within 0.2 log units of each other in “median log2 fold change” value: 0.302 for the first, 0.416 for the second.

Going from B9 to B10, the “median log2 fold change” value falls from 0.193 to -0.0117.

Compared with B11, B12 is higher in “median log2 fold change” value: -0.5 for the first, 0.214 for the second.

B13 and B14 are within 0.2 log units of each other in “median log2 fold change” value: 0.121 for the first, -0.0656 for the second.

B15 and B16 are within 0.2 log units of each other in “median log2 fold change” value: -0.116 for the first, 0.0163 for the second.

B17 and B18 are within 0.2 log units of each other in “median log2 fold change” value: 0.249 for the first, 0.166 for the second.

B19 was tested, and the “median log2 fold change” value was -1.27.
